We go through 39 compounds from the supplement of paper PMC9446081.

Hit rate of the full screen: of about 39,000 compounds, about 220 (0.56%) showed activity. The list shows a part of the results.
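Also: static incubation at 37 °C against the wild-type strain, values averaged over two biological replicates.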

The assay concerns Escherichia coli K-12 BW25113. Kind of assay: relative growth (OD600 normalised to plate interquartile mean) (fraction); higher = less growth inhibition, active = 0.2 or less. The conditions noted are these: 50 µM; LB; incubation time: overnight (16-24 h).
For `Cc1ccc(S(=O)(=O)Nc2cccc3c2O[C@@H](CN(C)Cc2ccc(-c4ccccc4)cc2)[C@@H](C)CN([C@H](C)CO)C3=O)cc1`, the relative growth was inactive: 1.03.

For the compound `C[C@H](CO)N1C[C@H](C)[C@H](CN(C)C(=O)Nc2ccc(C(F)(F)F)cc2)Oc2c(NS(=O)(=O)c3ccc(Cl)cc3)cccc2C1=O`, the relative growth is inactive: 0.993.

For `C[C@H]1CN([C@@H](C)CO)C(=O)Cc2cc(NC(=O)Nc3ccc(C(F)(F)F)cc3)ccc2O[C@H]1CN(C)C(=O)Nc1ccc(F)cc1`, the relative growth is inactive: 0.997.

For the compound `O=C(COc1ccc(S(=O)(=O)N2CCOCC2)cc1)NCCCn1ccnc1`, the relative growth was inactive: 0.984.

Regarding `C[C@@H]1CCCCO[C@@H](CN(C)C(=O)C2CCCCC2)[C@@H](C)CN([C@H](C)CO)C(=O)c2cc(NS(=O)(=O)c3ccc(Cl)cc3)ccc2O1`, the relative growth was inactive: 1.01.

For `Oc1ccc(O)cc1`, the relative growth is inactive: 1.14.

`COc1cc2ncnc(Oc3cccc(NC(=O)Nc4cc(C(C)(C)C(F)(F)F)on4)c3)c2cc1OC`: the relative growth is inactive: 0.843.

For the compound `Nc1cc[nH]c(=O)n1`, the relative growth was inactive: 0.997.

With `COC(=O)C[C@@H]1CC[C@H]2[C@@H](COC[C@@H](O)CN2S(=O)(=O)c2cn(C)cn2)O1`, the relative growth was inactive: 0.982.

In the case of `C[C@@H]1CN([C@@H](C)CO)C(=O)Cc2cc(NC(=O)Nc3ccc(F)cc3)ccc2O[C@@H]1CN(C)Cc1ccc(Cl)c(Cl)c1`, the relative growth is inactive: 0.978.

For `C[C@@H]1CN([C@@H](C)CO)S(=O)(=O)c2ccc(C#Cc3ccccc3F)cc2O[C@H]1CN(C)CC1CC1`, the relative growth was inactive: 1.03.

On to `CN1CCN(C(=O)C[C@H]2CC[C@@H]3[C@H](COC[C@H](O)CN3C(=O)Nc3cc(Cl)cc(Cl)c3)O2)CC1`, for which the relative growth is inactive: 0.917.

As to `Cc1ccccc1-n1ccc(=O)[nH]c1=O`, the relative growth is inactive: 0.93.

On to `C[C@@H]1CN([C@@H](C)CO)C(=O)c2cc(NC(=O)Cc3cn(C)c4ccccc34)ccc2O[C@@H]1CN(C)Cc1ccc(Oc2ccccc2)cc1`, for which the relative growth is inactive: 0.983.

For the compound `C[C@H](CO)N1C[C@H](C)[C@H](CN(C)C(=O)Nc2cccc3ccccc23)Oc2ccc(NC(=O)Cc3ccccc3)cc2CC1=O`, the relative growth was inactive: 0.97.

For the compound `C[C@H](CO)N1C[C@H](C)[C@@H](CN(C)C(=O)Cc2ccncc2)Oc2cc(C3=CCCC3)ccc2S1(=O)=O`, the relative growth was inactive: 0.997.

`CCNC(=O)C[C@H]1CC[C@H]2[C@@H](COC[C@@H](O)CN2C(=O)Nc2c(C)noc2C)O1`: the relative growth was inactive: 1.01.

Take `C[C@H]1CN([C@@H](C)CO)C(=O)c2cc(NS(=O)(=O)c3ccccc3)ccc2O[C@H]1CN(C)C(=O)Nc1cccc2ccccc12`: the relative growth is inactive: 0.978.

Consider `Cc1ccc(S(=O)(=O)N(C)C[C@H]2Oc3ccc(NS(C)(=O)=O)cc3CC(=O)N([C@@H](C)CO)C[C@H]2C)cc1`, for which the relative growth is inactive: 1.01.

Consider `NC(=O)c1ncn([C@H]2O[C@@H](COP(=O)(O)O)[C@@H](O)[C@@H]2O)c1N`, for which the relative growth is inactive: 0.978.

For the compound `CCc1c(C)[nH]c(=S)c(C#N)c1C`, the relative growth was inactive: 1.01.

`O=C(C[C@@H]1C=C[C@H](NS(=O)(=O)c2ccc(F)cc2)[C@@H](CO)O1)NCCN1CCCCC1`: the relative growth is inactive: 1.

With `C[C@H]1CN([C@@H](C)CO)C(=O)c2cc(NC(=O)Nc3cccc4ccccc34)ccc2O[C@@H]1CN(C)S(=O)(=O)c1ccc(Cl)cc1`, the relative growth was inactive: 1.05.

In the case of `C[C@@H]1CN([C@H](C)CO)C(=O)Cc2cc(NC(=O)Nc3cccc4ccccc34)ccc2O[C@@H]1CN(C)CC1CCCCC1`, the relative growth is inactive: 1.03.

In the case of `O=C(C[C@H]1C[C@@H]2c3cc(NC(=O)c4ccc5c(c4)OCO5)ccc3O[C@@H]2[C@H](CO)O1)NCC(F)(F)F`, the relative growth is inactive: 0.991.

As for `C[C@@H]1CN([C@H](C)CO)C(=O)c2cc(NC(=O)Cn3cnnn3)ccc2O[C@H]1CN(C)Cc1ccccc1`, the relative growth is inactive: 1.02.

Regarding `Cc1ccc(S[C@]2(C(=O)NC(C)C)CC(=O)N(Cc3ccccc3C(F)(F)F)[C@@H]2c2ccc(CO)cc2)cc1`, the relative growth is inactive: 0.95.

For the compound `COc1ccc(S(=O)(=O)Nc2ccc3c(c2)C(=O)N([C@@H](C)CO)C[C@@H](C)[C@H](CN(C)S(C)(=O)=O)O3)cc1`, the relative growth was inactive: 1.01.

In the case of `C[C@H](O)C#Cc1ccc2c(c1)O[C@@H](CN(C)C(=O)Nc1ccccc1)[C@H](C)CN([C@@H](C)CO)S2(=O)=O`, the relative growth is inactive: 1.

On to `C[C@H]1CN(C)C(=O)c2cc(NS(C)(=O)=O)ccc2O[C@H]1CN(C)S(C)(=O)=O`, for which the relative growth is inactive: 0.997.

Regarding `C[C@@H]1CCCCO[C@@H](CN(C)S(=O)(=O)c2ccc(Cl)cc2)[C@@H](C)CN([C@@H](C)CO)C(=O)c2cc(NC(=O)CCC(F)(F)F)ccc2O1`, the relative growth was inactive: 1.

As for `C[C@@H]1CN([C@H](C)CO)C(=O)Cc2cc(NC(=O)CCCCCC(=O)Nc3ccccc3N)ccc2O[C@H]1CN(C)C(=O)Nc1ccc(F)cc1`, the relative growth is inactive: 0.974.

On to `COc1ccc(S(=O)(=O)Nc2cccc3c2O[C@@H](CN(C)S(=O)(=O)c2ccc(F)cc2)[C@@H](C)CN([C@H](C)CO)C3=O)cc1`, for which the relative growth was inactive: 1.04.

Take `COc1ccc([C@@H]([C@H](Cc2ccccc2)OC(C)=O)N2C[C@@H](NC(=O)C(Cl)(Cl)Cl)[C@@H]3C(=NO[C@H]3c3ccccc3)[C@@H]2Cc2ccccc2)cc1`: the relative growth is inactive: 0.994.

For the compound `Cc1noc(C)c1S(=O)(=O)Nc1ccc2c(c1)C(=O)N([C@H](C)CO)C[C@H](C)[C@H](CN(C)Cc1ccccc1)OCCCC[C@H](C)O2`, the relative growth was inactive: 0.987.

On to `O=C(C[C@@H]1CC[C@@H](NS(=O)(=O)c2ccccc2)[C@H](CO)O1)NCc1ccncn1`, for which the relative growth is inactive: 0.916.

For the compound `Cc1ccc(S(=O)(=O)N(C)C[C@H]2OCCCC[C@H](C)Oc3ccc(NC(=O)Cc4ccccc4)cc3C(=O)N([C@H](C)CO)C[C@H]2C)cc1`, the relative growth is inactive: 1.01.

With `C[C@@H]1CCCCO[C@@H](CN(C)C(=O)Nc2ccc(C(F)(F)F)cc2)[C@@H](C)CN([C@H](C)CO)C(=O)c2cc(NC(=O)NC3CCCCC3)ccc2O1`, the relative growth was inactive: 1.04.

For the compound `CC(C)NC(=O)Nc1ccc2c(c1)C(=O)N([C@H](C)CO)C[C@H](C)[C@H](CN(C)S(=O)(=O)c1cn(C)cn1)OCCCC[C@@H](C)O2`, the relative growth was inactive: 1.01.
